Reference: PubChem BioAssay AID540317 (National Center for Advancing Translational Sciences (NCATS), 2011)
Among all 390,000 compounds or so, about 2,200 (0.56%) were called active. Inconclusive means that the source gave no clear call. Such entries were picked first, then a sample of the others. Calls come from the whole dose curve; as a rule, active = well fitted inhibition curve with a large enough effect; inconclusive = small, poorly fitted or top-dose-only effect; inactive = no such curve, though single readings can be large or run the other way. Where the call is inconclusive, the potency comes from a doubtful curve fit.

Biological target: Chromobox protein homolog 1 (Homo sapiens) (UniProt P83916)
Test: HTS for Inhibitors of HP1-beta Chromodomain Interactions with Methylated Histone Tails; note: nearly all actives have a fitted effect of over 70% in size
Conditions: AlphaScreen HP1-beta / biotin-H3K9me3 peptide binding; series mostly up to 114 µM
Method in brief: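 Compound inhibition of the preformed complex between 50 nM HP1-beta and 50 nM biotinylated H3K9me3 peptide was read by AlphaScreen. Buffer was PBS pH 7.4 with 0.01% Tween-20. Incubations ran 30 min at room temperature, with 10 ug/mL donor/acceptor beads.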
Potency is the fitted concentration of half-maximal effect; tags give direction and shape of the fitted curve.

Sequence of UniProt P83916 (P83916 whole entry, looked up): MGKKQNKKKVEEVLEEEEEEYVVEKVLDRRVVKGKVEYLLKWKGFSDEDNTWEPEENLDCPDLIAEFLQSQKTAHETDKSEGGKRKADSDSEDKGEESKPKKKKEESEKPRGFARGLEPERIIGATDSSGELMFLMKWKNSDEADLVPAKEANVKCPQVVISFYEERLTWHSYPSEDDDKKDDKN

Q: With `CCn1cc([N+](=O)[O-])c(C(=O)N2N=C(c3ccc(O)c(OC)c3)CC2c2ccccc2O)n1` (stereo not drawn) as the compound, how does the Potency read?
A: Its Potency is “inactive”.

Q: Which Potency does the source give for `O=C(N/N=C1/CC2C=CCC12)c1cccs1` (stereo not drawn) here?
A: Its Potency is “inactive”.

Q: For `COc1ccc(-c2cc(CNS(=O)(=O)c3ccc(NC(C)=O)cc3)on2)cc1`, which Potency is on record?
A: Its Potency is “inactive”.

Q: `C=CCNCc1cc(=O)n2c(-c3ccccc3)csc2n1` was tested. Which Potency did it give?
A: Its Potency is inconclusive: 56.2 µM [inhibitor, partial curve, poor fit].

Q: With `Cc1nn(CC#N)c(=O)n1-c1ccc(F)cc1` as the compound, how does the Potency read?
A: Its Potency is “inactive”.

Q: For `Cn1c(=O)c2c(ncn2CC(=O)OCC(=O)Nc2cc(Cl)ccc2Cl)n(C)c1=O`, which Potency is on record?
A: Its Potency is “inactive”.

Q: How did the Potency turn out when `O=C(COC(=O)c1ccc2c(c1)OCO2)Nc1ccccc1OC(F)F` was run?
A: The Potency was “inactive”.

Q: With `COc1ccc(N2CCN(S(=O)(=O)c3ccc(OC)c(C(=O)N4CCCCC4)c3)CC2)cc1` as the compound, how does the Potency read?
A: Its Potency is inconclusive: 89.1 µM [inhibitor, single point].

Q: With `c1cc2nc(C34CC5CC(CC(C5)C3)C4)[nH]c2cn1` as the compound, how does the Potency read?
A: The Potency was inconclusive: 17.8 µM [inhibitor, full curve].

Q: `Cc1ccc2oc(C(=O)Nc3ccc(S(=O)(=O)Nc4nc(C)cc(C)n4)cc3)cc(=O)c2c1` was tested. Which Potency did it give?
A: The Potency was “inactive”.

Q: How did the Potency turn out when `CC1CCCCN1CCCNC(=O)Cn1c(=O)c2cccn2c2ccccc21` (stereo not drawn) was run?
A: The Potency was “inactive”.

Q: For `CC1(C)C(/C=C/C=C/C=C/C=C2\N(CCCCS(=O)(=O)O)c3ccc4ccccc4c3C2(C)C)=[N+](CCCCS(=O)(=O)[O-])c2ccc3ccccc3c21`, which Potency is on record?
A: The Potency was inconclusive: 3.98 µM [inhibitor, full curve, poor fit].

Q: How did the Potency turn out when `COc1ccc(-c2nc3ccccc3o2)cc1NC(=O)c1ccc(-c2cccc(Cl)c2C)o1` was run?
A: The Potency was “inactive”.

Q: With `Cc1ccc(-c2nc3c(c(SCC(=O)Nc4cccc(C(=O)O)c4)n2)Cc2cccc(C)c2O3)cc1` as the compound, how does the Potency read?
A: Its Potency is inconclusive: 14.1 µM [inhibitor, partial curve, poor fit].

Q: `CCC(C)NCCOCCOc1ccc(Br)cc1C` (stereo not drawn) was tested. Which Potency did it give?
A: Its Potency is inconclusive: 15.8 µM [inhibitor, partial curve, poor fit].

Q: With `O=C(/C=C/c1ccccc1O)c1ccccc1` as the compound, how does the Potency read?
A: Its Potency is “inactive”.

Q: `Cc1ccc2nc(NC(=O)C3CCN(S(=O)(=O)c4cc([N+](=O)[O-])ccc4Cl)CC3)sc2c1` was tested. Which Potency did it give?
A: Its Potency is inconclusive: 39.8 µM [inhibitor, partial curve, poor fit].

Q: How did the Potency turn out when `Cc1ccc(Nc2ccc(S(=O)(=O)N3CCOCC3)cc2[N+](=O)[O-])c(C)c1` was run?
A: Its Potency is inconclusive: 14.1 µM [inhibitor, full curve, poor fit].

Q: `O=C(O)C1Nc2c(Cl)cc(Cl)c(Cl)c2C2C=CCC12` (stereo not drawn) was tested. Which Potency did it give?
A: Its Potency is inconclusive: 39.8 µM [inhibitor, partial curve, poor fit].

Q: `CCOc1ccc(-c2cc(NC(=O)c3c(F)cccc3F)c(C(=O)O)s2)cc1` was tested. Which Potency did it give?
A: The Potency was inconclusive: 79.4 µM [inhibitor, partial curve, poor fit].

Q: With `COc1ccc(OC)c(CCNC(=O)c2c3c(nc4ccccc24)C(=O)N(C2CCCCC2)C3)c1` as the compound, how does the Potency read?
A: The Potency was inconclusive: 79.4 µM [inhibitor, single point].

Q: `COC(=O)/C=C/COc1ccccc1[N+](=O)[O-]` was tested. Which Potency did it give?
A: Its Potency is inconclusive: 5.01 µM [inhibitor, full curve].

Q: How did the Potency turn out when `C/C(=C\c1cc2ccccc2o1)C1Nc2cccc3cccc(c23)N1` was run?
A: Its Potency is inconclusive: 28.2 µM [inhibitor, partial curve].

Q: `COc1cc(NC(=O)Nc2ccccc2)c(OC)cc1NC(=O)CN1CCCCC1` was tested. Which Potency did it give?
A: Its Potency is inconclusive: 17.8 µM [inhibitor, full curve, poor fit].

Q: How did the Potency turn out when `O=S(=O)(NCC1OCCc2ccccc21)c1ccccc1` (stereo not drawn) was run?
A: The Potency was inconclusive: 39.8 µM [inhibitor, single point].

Q: How did the Potency turn out when `COc1ccccc1-c1nnn(CC#N)n1` was run?
A: The Potency was inconclusive: 22.4 µM [inhibitor, single point].

Q: Which Potency does the source give for `CC(C)CC(=O)N1CCN(CC2CC=CCC2)CC1` (stereo not drawn) here?
A: Its Potency is inconclusive: 11.2 µM [inhibitor, full curve, poor fit].

Q: How did the Potency turn out when `C=CCN(CC=C)C(=S)NC(=O)/C=C/c1ccccc1` was run?
A: Its Potency is inconclusive: 8.91 µM [inhibitor, partial curve, poor fit].

Q: For `Cc1ccc(-c2csc(NC(=O)CSc3nc4ccccc4c(=O)n3CCCN(C)C)n2)cc1`, which Potency is on record?
A: The Potency was inconclusive: 44.7 µM [inhibitor, partial curve].

Q: How did the Potency turn out when `Cc1ccc(-c2cn(-c3ccccc3F)c(=S)[nH]2)cc1` was run?
A: Its Potency is inconclusive: 22.4 µM [inhibitor, full curve].

Q: How did the Potency turn out when `Cn1c(=O)c2c(c3ccccc31)OC(=O)CC2c1cccc(F)c1` (stereo not drawn) was run?
A: Its Potency is “inactive”.

Q: How did the Potency turn out when `O=C(Cn1nc(C(=O)O)c2ccccc2c1=O)NCc1ccco1` was run?
A: Its Potency is inconclusive: 35.5 µM [inhibitor, single point].

Q: For `COc1ccc(/C=C/C(=O)c2ccc3ccccc3c2O)cc1CN1CCOCC1`, which Potency is on record?
A: Its Potency is inconclusive: 56.2 µM [inhibitor, single point].

Q: `CC(=O)Nc1ccc(SCC(=O)c2ccc(Br)s2)cc1` was tested. Which Potency did it give?
A: The Potency was inconclusive: 70.8 µM [inhibitor, partial curve].

Q: Which Potency does the source give for `CCN(CC(=O)Nc1ccc2c(c1)OCCO2)CC(=O)Nc1ccccc1C(F)(F)F` here?
A: Its Potency is active: 28.2 µM.

Q: How did the Potency turn out when `Cc1scc(C(=O)Nc2ccon2)c1-c1ccccc1` was run?
A: Its Potency is “inactive”.

Q: How did the Potency turn out when `CCOc1ccc(N(C)Cc2cc(=O)oc3ccc(OC)cc23)cc1` was run?
A: The Potency was inconclusive: 20 µM [inhibitor, full curve].

Q: `COc1ccccc1C(c1nnnn1Cc1ccco1)N1CCN(c2cccc(C)c2C)CC1` (stereo not drawn) was tested. Which Potency did it give?
A: Its Potency is inconclusive: 50.1 µM [inhibitor, partial curve, poor fit].

Q: With `CCCCNC(=O)CN1CCN(Cc2ccc3cc(OC)ccc3c2)CC1` as the compound, how does the Potency read?
A: The Potency was inconclusive: 28.2 µM [inhibitor, partial curve, poor fit].

Q: `C=CCN1C(=O)/C(=C\c2cccs2)C(C(=O)OC)=C1C` was tested. Which Potency did it give?
A: The Potency was inconclusive: 44.7 µM [inhibitor, partial curve].

Q: How did the Potency turn out when `O=C(Nc1nccs1)c1ccc(COc2ccc(F)cc2)o1` was run?
A: The Potency was “inactive”.

Q: `O=C(NCCOc1ccccc1)c1cc(C(=O)NCCOc2ccccc2)cc([N+](=O)[O-])c1` was tested. Which Potency did it give?
A: The Potency was inconclusive: 39.8 µM [inhibitor, single point].

Q: `Cc1ccc(-n2c(O)c(C=Nc3cc(C)on3)c3ccccc3c2=O)c(C)c1` was tested. Which Potency did it give?
A: The Potency was inconclusive: 28.2 µM [inhibitor, single point].
